Measured values from the supplement of paper PMC8728848.
Some of the results follow.

Tests used:
Assay in all cases: glycan array binding signal (z-score within array); higher = stronger binding
Details in all cases: glycan notation: IUPAC condensed, linker removed
[1] = biological target: Gal(b1-3)GlcNAc
How it was run: (§1)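 Glycan array binding is given as a within-array Z-score, which can be read as non-binding when negative. The arrays, 3228 of them, came from the Consortium for Functional Glycomics database and were retained only where the protein sequence was available. Z-scores were averaged across arrays of the same protein sequence at different concentrations or buffers and across linkers.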

[2] = biological target: Gal(b1-3)GlcNAc(b1-3)Gal(b1-4)Glc
How it was run: as §1

[3] = biological target: Gal(b1-3)GlcNAc(b1-3)Gal(b1-4)GlcNAc(b1-3)Gal(b1-4)Glc
How it was run: as §1

[4] = biological target: Gal(b1-3)GlcNAc(b1-3)Gal(b1-4)GlcNAc(b1-6)[Gal(b1-3)GlcNAc(b1-3)]Gal(b1-4)Glc
How it was run: as §1

[5] = biological target: Gal(b1-3)GlcNAc(b1-3)Gal(b1-4)[Fuc(a1-3)]GlcNAc(b1-3)Gal(b1-4)Glc
How it was run: as §1

[6] = biological target: Gal(b1-3)GlcNAc(b1-3)Gal(b1-4)[Fuc(a1-3)]GlcNAc(b1-6)[Gal(b1-3)GlcNAc(b1-3)]Gal(b1-4)Glc
How it was run: as §1

[7] = biological target: Gal(b1-3)GlcNAc(b1-3)[Fuc(a1-3)[Gal(b1-4)]GlcNAc(b1-6)]Gal(b1-4)Glc
How it was run: as §1

[8] = biological target: Gal(b1-3)GlcNAc(b1-3)[Fuc(a1-3)[Gal(b1-4)]GlcNAc(b1-6)]Gal(b1-4)]GlcNAc(b1-6)[Gal(b1-4)]GlcNAc(b1-3)]Gal(b1-4)Glc
How it was run: as §1

[9] = biological target: Gal(b1-3)GlcNAc(b1-3)[Gal(b1-4)GlcNAc(b1-6)]Gal(b1-4)Glc
How it was run: as §1

[10] = biological target: Gal(b1-3)GlcNAc(b1-3)[Gal(b1-4)GlcNAc(b1-6)]Gal(b1-4)GlcNAc(b1-6)[Gal(b1-3)GlcNAc(b1-3)]Gal(b1-4)Glc
How it was run: as §1

[11] = biological target: Gal(b1-3)[Fuc(a1-4)]GlcNAc
How it was run: as §1

[12] = biological target: Gal(b1-3)[Fuc(a1-4)]GlcNAc(b1-3)Gal(b1-4)Glc
How it was run: as §1

[13] = biological target: Gal(b1-3)[Fuc(a1-4)]GlcNAc(b1-3)Gal(b1-4)[Fuc(a1-3)]Glc
How it was run: as §1

[14] = biological target: Gal(b1-3)[Fuc(a1-4)]GlcNAc(b1-3)Gal(b1-4)[Fuc(a1-3)]GlcNAc(b1-3)Gal(b1-4)Glc
How it was run: as §1

[15] = biological target: Gal(b1-3)[Fuc(a1-4)]GlcNAc(b1-3)Gal(b1-4)[Fuc(a1-3)]GlcNAc(b1-6)[Gal(b1-3)[Fuc(a1-4)]GlcNAc(b1-3)]Gal(b1-4)Glc
How it was run: as §1

[16] = biological target: Gal(b1-3)[Fuc(a1-4)]GlcNAc(b1-3)[Fuc(a1-3)[Gal(b1-4)]GlcNAc(b1-6)]Gal(b1-4)Glc
How it was run: as §1

[17] = biological target: Gal(b1-3)[Neu5Ac(a2-6)]GlcNAc(b1-3)Gal(b1-4)Glc
How it was run: as §1

[18] = biological target: Gal(b1-4)Glc
How it was run: as §1

[19] = biological target: Gal(b1-4)GlcNAc
How it was run: as §1

[20] = biological target: Gal(b1-4)GlcNAc(b1-2)Man(a1-3)[Gal(b1-4)GlcNAc(b1-2)Man(a1-6)]Man(b1-4)GlcNAc(b1-4)GlcNAc
How it was run: as §1

[21] = biological target: Gal(b1-4)GlcNAc(b1-2)Man(a1-3)[Gal(b1-4)GlcNAc(b1-2)Man(a1-6)]Man(b1-4)GlcNAc(b1-4)[Fuc(a1-6)]GlcNAc
How it was run: as §1

[22] = biological target: Gal(b1-4)GlcNAc(b1-2)Man(a1-3)[Gal(b1-4)GlcNAc(b1-2)Man(a1-6)][GlcNAc(b1-4)]Man(b1-4)GlcNAc(b1-4)[Fuc(a1-6)]GlcNAc
How it was run: as §1

[23] = biological target: Gal(b1-4)GlcNAc(b1-2)Man(a1-3)[Man(a1-6)]Man(b1-4)GlcNAc(b1-4)GlcNAc
How it was run: as §1

[24] = biological target: Gal(b1-4)GlcNAc(b1-2)Man(a1-6)[GlcNAc(b1-2)Man(a1-3)]Man(b1-4)GlcNAc(b1-4)[Fuc(a1-6)]GlcNAc
How it was run: as §1

[25] = biological target: Gal(b1-4)GlcNAc(b1-2)Man(a1-6)[Man(a1-3)]Man(b1-4)GlcNAc(b1-4)GlcNAc
How it was run: as §1

[26] = biological target: Gal(b1-4)GlcNAc(b1-2)Man(a1-6)[Man(a1-3)]Man(b1-4)GlcNAc(b1-4)[Fuc(a1-6)]GlcNAc
How it was run: as §1

[27] = biological target: Gal(b1-4)GlcNAc(b1-2)[Gal(b1-4)GlcNAc(b1-4)]Man(a1-3)[Fuc(a1-3)[Gal(b1-4)]GlcNAc(b1-2)Man(a1-6)]Man(b1-4)GlcNAc(b1-4)GlcNAc
How it was run: as §1

[28] = biological target: Gal(b1-4)GlcNAc(b1-2)[Gal(b1-4)GlcNAc(b1-4)]Man(a1-3)[Gal(b1-4)GlcNAc(b1-2)Man(a1-6)]Man(b1-4)GlcNAc(b1-4)GlcNAc
How it was run: as §1

[29] = biological target: Gal(b1-4)GlcNAc(b1-2)[Gal(b1-4)GlcNAc(b1-4)]Man(a1-3)[Gal(b1-4)GlcNAc(b1-2)[Gal(b1-4)GlcNAc(b1-6)]Man(a1-6)]Man(b1-4)GlcNAc(b1-4)GlcNAc
How it was run: as §1

[30] = biological target: Gal(b1-4)GlcNAc(b1-3)Fuc
How it was run: as §1

[31] = biological target: Gal(b1-4)GlcNAc(b1-3)Gal(b1-4)Glc
How it was run: as §1

[32] = biological target: Gal(b1-4)GlcNAc(b1-3)Gal(b1-4)GlcNAc(b1-3)Gal(b1-4)Glc
How it was run: as §1

[33] = biological target: Gal(b1-4)GlcNAc(b1-3)[Fuc(a1-3)[Gal(b1-4)]GlcNAc(b1-6)]Gal(b1-4)Glc
How it was run: as §1

[34] = biological target: Gal(b1-4)GlcNAc(b1-3)[Gal(b1-4)GlcNAc(b1-6)]Gal(b1-4)Glc
How it was run: as §1

[35] = biological target: Gal(b1-4)GlcNAc(b1-3)[Gal(b1-4)GlcNAc(b1-6)]Gal(b1-4)GlcNAc(b1-3)Gal(b1-4)Glc
How it was run: as §1

[36] = biological target: Gal(b1-4)GlcNAc(b1-3)[Gal(b1-4)GlcNAc(b1-6)]Gal(b1-4)GlcNAc(b1-3)[Gal(b1-4)GlcNAc(b1-6)]Gal(b1-4)GlcNAc(b1-3)Gal(b1-4)Glc
How it was run: as §1

[37] = biological target: Gal(b1-4)GlcNAc(b1-3)[Gal(b1-4)GlcNAc(b1-6)]Gal(b1-4)GlcNAc(b1-3)[Gal(b1-4)GlcNAc(b1-6)]Gal(b1-4)GlcNAc(b1-3)[Gal(b1-4)GlcNAc(b1-6)]Gal(b1-4)GlcNAc(b1-3)Gal(b1-4)Glc
How it was run: as §1

[38] = biological target: Gal(b1-4)GlcNAc(b1-3)[Gal(b1-4)GlcNAc(b1-6)]Gal(b1-4)GlcNAc(b1-3)[Gal(b1-4)GlcNAc(b1-6)]Gal(b1-4)GlcNAc(b1-3)[Gal(b1-4)GlcNAc(b1-6)]Gal(b1-4)GlcNAc(b1-3)[Gal(b1-4)GlcNAc(b1-6)]Gal(b1-4)GlcNAc(b1-3)Gal(b1-4)Glc
How it was run: as §1

[39] = biological target: Gal(b1-6)GalNAc
How it was run: as §1

[40] = biological target: Gal3S(b1-3)GalNAc(b1-4)Gal3S(b1-4)Glc
How it was run: as §1

[41] = biological target: Gal3S(b1-3)[Fuc(a1-4)]GlcNAc
How it was run: as §1

[42] = biological target: Gal3S(b1-3)[Fuc(a1-4)]GlcNAc(b1-3)Gal(b1-4)Glc
How it was run: as §1

[43] = biological target: Gal3S(b1-4)Glc
How it was run: as §1

[44] = biological target: Gal3S(b1-4)GlcNAc
How it was run: as §1

[45] = biological target: Gal3S(b1-4)GlcNAc(b1-3)Gal
How it was run: as §1

B1: Dectin-1 (Mus musculus), Q6QLQ4 (protein)
chain: GHNSGRNPEEKDNFLSRNKENHKPTESSLDEKVAPSKASQTTGGFSQPCLPNWIMHGKSCYLFSFSGNSWYGSKRHCSQLGAHLLKIDNSKEFEFIESQTSSHRINAFWIGLSRNQSEGPWFWEDGSAFFPNSFQVRNTAPQESLLHNCVWIHGSEVYNQICNTSSYSICEKEL
- glycan array binding signal (z-score) [1]: -0.088
- glycan array binding signal (z-score) [2]: -0.043
- glycan array binding signal (z-score) [3]: -0.05
- glycan array binding signal (z-score) [4]: 0.028
- glycan array binding signal (z-score) [5]: -0.056
- glycan array binding signal (z-score) [6]: -0.091
- glycan array binding signal (z-score) [7]: -0.091
- glycan array binding signal (z-score) [8]: 0.102
- glycan array binding signal (z-score) [9]: -0.001
- glycan array binding signal (z-score) [10]: 0.013
- glycan array binding signal (z-score) [11]: -0.079
- glycan array binding signal (z-score) [12]: -0.072
- glycan array binding signal (z-score) [13]: -0.068
- glycan array binding signal (z-score) [14]: -0.054
- glycan array binding signal (z-score) [15]: -0.091
- glycan array binding signal (z-score) [16]: -0.045
- glycan array binding signal (z-score) [17]: -0.088
- glycan array binding signal (z-score) [18]: -0.047
- glycan array binding signal (z-score) [19]: -0.074
- glycan array binding signal (z-score) [20]: -0.076
- glycan array binding signal (z-score) [21]: -0.054
- glycan array binding signal (z-score) [22]: -0.091
- glycan array binding signal (z-score) [23]: -0.091
- glycan array binding signal (z-score) [24]: -0.091
- glycan array binding signal (z-score) [25]: -0.091
- glycan array binding signal (z-score) [26]: -0.091
- glycan array binding signal (z-score) [27]: -0.091
- glycan array binding signal (z-score) [28]: -0.067
- glycan array binding signal (z-score) [29]: -0.033
- glycan array binding signal (z-score) [30]: -0.091
- glycan array binding signal (z-score) [31]: -0.061
- glycan array binding signal (z-score) [32]: 0.056
- glycan array binding signal (z-score) [33]: -0.091
- glycan array binding signal (z-score) [34]: -0.084
- glycan array binding signal (z-score) [35]: -0.064
- glycan array binding signal (z-score) [36]: -0.061
- glycan array binding signal (z-score) [37]: -0.061
- glycan array binding signal (z-score) [38]: -0.08
- glycan array binding signal (z-score) [39]: -0.035
- glycan array binding signal (z-score) [40]: -0.059
- glycan array binding signal (z-score) [41]: -0.091
- glycan array binding signal (z-score) [42]: -0.091
- glycan array binding signal (z-score) [43]: -0.091
- glycan array binding signal (z-score) [44]: -0.071
- glycan array binding signal (z-score) [45]: -0.091
